Variants at the background level are over-represented here.
B1: tRNA (parent)
chain: CUCUCGGUAGCCAAGUUGGUUUAAGGCGCAAGACUUUAAUUUAUCACUACGAAAUCUUGAGAUCGGGCGUUCGACUCGCCCCCGGGAGAUUUUUUCCUCGAGCAA

Variants of: B1
Experiment: nonsense suppression (GFP-seq) (ratio to wild type); higher = more function; SUP4oc tRNA, yeast GFP reporter sort-seq
In short: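 To measure nonsense suppression, tRNA variants from a library carrying ~3% random mutations were integrated into the yeast genome alongside RFP and a GFP ochre reporter under galactose control. Growth took place in raffinose/galactose medium supplemented with 80 mg/L adenine, followed by sorting into GFP/RFP bins and Illumina sequencing of each bin (phred ≥30). For each variant with ≥100 reads and ≥30 cells, the bin median GFP/RFP values were weighted by its estimated cell share per bin and referenced to the unmutated parent tRNA.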

Variant	nonsense suppression
U35G G66C	≤ 0.026
U35G G66C A89C	≤ 0.026
U35G G78C	≤ 0.026
U35G G78U	≤ 0.026
U35G G85A	≤ 0.026
U35G G86A	≤ 0.026
U35G G86U	≤ 0.026
U35G U57C	≤ 0.026
U35G U70C	≤ 0.026
U35G U70C G86A	≤ 0.026
U35G U71C A74C G88U	≤ 0.026
U35G U71G G86A	≤ 0.026
U35G U76A	≤ 0.026
A54C A62C	≤ 0.026
A54C A89C	≤ 0.026
A54C C75G G78C	≤ 0.026
A54C C75U	1.22
A54C C79A	≤ 0.026
A54C C80A	≤ 0.026
A54C G61C	0.216
A54C G69A	≤ 0.026
A54C G78A	0.107
A54C G84C	≤ 0.026
A54C G88C	≤ 0.026

Variant	nonsense suppression
A54C U55C	≤ 0.026
A54C U55G G69A	≤ 0.026
A54C U55G U58A	≤ 0.026
A54C U57C G59A G73U	≤ 0.026
A54C U57C G61A	≤ 0.026
A54C U57C G65A U70C A87U	≤ 0.026
A54C U57C G66C	≤ 0.026
A54C U58G G65C G69U	≤ 0.026
A54C U63A U71C	≤ 0.026
A54C U63C C64U	≤ 0.026
A54C U71A G73A C77G G86C	≤ 0.026
A54C U71C	0.0406
A54C U71G	≤ 0.026
A54C U76C A87G	≤ 0.026
A54C U76C A87U	≤ 0.026
A54C U76G	≤ 0.026
A54C U76G A89G	≤ 0.026
A54G A60C	≤ 0.026
A54G A62C G67U C77A	≤ 0.026
A54G A74U C75G	≤ 0.026
A54G A87U	≤ 0.026
A54G C56U U57A U63C G69C	≤ 0.026
A54G C64G C68U	≤ 0.026
A54G C64G C75G	≤ 0.026

Variant	nonsense suppression
A54G C72A	≤ 0.026
A54G C79G A89G	≤ 0.026
A54G C81A	≤ 0.026
A54G G61A U76C C77G	≤ 0.026
A54G G61A U76C C77U	≤ 0.026
A54G G61U	≤ 0.026
A54G G65A	≤ 0.026
A54G G65C	≤ 0.026
A54G G66A A87C	≤ 0.026
A54G G66A C68G	≤ 0.026
A54G G67C	≤ 0.026
A54G G67U	≤ 0.026
A54G G69U	≤ 0.026
A54G G69U C77U	≤ 0.026
A54G G84C	≤ 0.026
A54G U57A G73A	≤ 0.026
A54G U58A C79A	≤ 0.026
A54G U58A U63A	≤ 0.026
A54U A62G A74U	≤ 0.026
A54U A62G G65C	≤ 0.026
A54U C56A	≤ 0.026
A54U C56A C72U	≤ 0.026
A54U C56G C72A	≤ 0.026
A54U C75A G86C	≤ 0.026

Variant	nonsense suppression
A54U C80A	≤ 0.026
A54U C80G	≤ 0.026
A54U C82G C83G	≤ 0.026
A54U C83G	≤ 0.026
A54U G65A	0.0335
A54U G65C	≤ 0.026
A54U G66A G69C	≤ 0.026
A54U G67A	0.0673
A54U G67C U71G G73C G84C	≤ 0.026
A54U G69C C81G	≤ 0.026
A54U G84A G86A	≤ 0.026
A54U G84C	≤ 0.026
A54U G84U	0.0565
A54U G85U	1.01
A54U U55C	≤ 0.026
A54U U55C A60G	≤ 0.026
A54U U57A	≤ 0.026
A54U U58G	≤ 0.026
A54U U63A	0.864
A54U U63C	0.798
A54U U63G	0.659
A54U U70C C81U C82G	≤ 0.026
A54U U71C G84A	≤ 0.026
U55A	≤ 0.026

Variant	nonsense suppression
U55A A60C C75U G78C C79G	≤ 0.026
U55A A60C C75U G78C C79G A89G	≤ 0.026
U55A A60C G61U	≤ 0.026
U55A A60C G78A C83G G86C	≤ 0.026
U55A A60U C77U	≤ 0.026
U55A A62C G88U	≤ 0.026
U55A A62G G66C A89C	≤ 0.026
U55A A74G A89C	≤ 0.026
U55A A87C	≤ 0.026
U55A A89C	≤ 0.026
U55A C56A C64A U70C	≤ 0.026
U55A C56U A62U A74C C75A A89U	≤ 0.026
U55A C56U A87C	≤ 0.026
U55A C68A	≤ 0.026
U55A C72A	≤ 0.026
U55A C75G	≤ 0.026
U55A C77G A87U	≤ 0.026
U55A C79U A87U	≤ 0.026
U55A C80G	≤ 0.026
U55A C80U	≤ 0.026
U55A C82A	≤ 0.026
U55A C83U G85U	≤ 0.026
U55A G59U C80U	≤ 0.026
U55A G61A	≤ 0.026

Variant	nonsense suppression
U55A G65C	≤ 0.026
U55A G66U	≤ 0.026
U55A G73C U76A	≤ 0.026
U55A G78U	≤ 0.026
U55A G86A	≤ 0.026
U55A U57A	≤ 0.026
U55A U58G U70A A89C	≤ 0.026
U55A U70A	≤ 0.026
U55A U71A	≤ 0.026
U55A U71A G73A	≤ 0.026
U55A U71C	≤ 0.026
U55A U76A G86A	≤ 0.026
U55A U76G	≤ 0.026
U55C	1.09
U55C A62G A74U	≤ 0.026
U55C A62U	≤ 0.026
U55C A74G	0.144
U55C C64G	0.0515
U55C C64G U70G U76A G78U	≤ 0.026
U55C C75G	1.16
U55C C75U	0.903
U55C C77G G78U	≤ 0.026
U55C C79U	0.183
U55C C81G	≤ 0.026

Variant	nonsense suppression
U55C C82A G85A	≤ 0.026
U55C G59C A60C C80A G84A A87C	≤ 0.026
U55C G59C G85C	≤ 0.026
U55C G59U	≤ 0.026
U55C G65A	0.0796
U55C G66C U71A G84C	≤ 0.026
U55C G73U	0.0422
U55C G78A C82A	≤ 0.026
U55C G84U	0.0453
U55C G88C	0.0568
U55C U57C G86U	≤ 0.026
U55C U57G	≤ 0.026
U55C U58A	≤ 0.026
U55C U58C G59A	≤ 0.026
U55C U58C G59C U63C	≤ 0.026
U55C U63A	0.244
U55C U63A C72U	≤ 0.026
U55C U63A C75G	0.0265
U55C U63C C83G	≤ 0.026
U55C U63G	≤ 0.026
U55G	≤ 0.026
U55G A60C C75A	≤ 0.026
U55G A60U	≤ 0.026

— the RNAGym collection of RNA variant scans (doi:10.1101/gad.245936.114)
